Source: PubChem BioAssay AID652104 (National Center for Advancing Translational Sciences (NCATS), 2013)
Out of some 410,000 compounds screened, about 7,200 (1.8%) were called active. The shares of active, inactive and inconclusive entries below differ from those in the screen. Calls follow the shape of the dose curve; as a rule, active = well fitted activation curve with a large enough effect; inconclusive = small, poorly fitted or top-dose-only effect, or another doubt; inactive = no such curve, though single readings can be large or run the other way. No potency is given beside an inconclusive call; the fits are too rough.

Assay: qHTS of TDP-43 Inhibitors; also: nearly all actives have a fitted effect of over 50% in size; as to growth rescue (activation): % of control where 0% means no effect
Settings: TDP-43 expressing yeast growth rescue, BacTiter-Glo, 24 h; growth rescue (activation): at 46.1 µM (top of the series) unless noted
Summary of the method: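 Yeast expressing TDP-43 (pregrown in raffinose, seeded at OD600=0.02 in galactose medium) exposed to compounds 24 hr at 30 deg C. Growth read by BacTiter-Glo luminescence; rescue of toxicity appears as increased signal.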
Potency is read from the fitted curve at half-maximal effect; tags tell the direction and shape of the fitted curve.

Compound | Potency | growth rescue (activation)
CC[C@]12c3[nH]c4ccc(Cl)cc4c3CCN1C(=O)[C@@H](CC(=O)NCCC1=CCCCC1)C[C@@H]2C(=O)N1CCN(C(=O)c2ccco2)CC1 | inconclusive [activator, partial curve, poor fit] | –
O=C(Oc1ccc(C(=S)N2CCOCC2)cc1)c1ccc(F)cc1 | active: 7.08 µM | –
CCOC(=O)c1ccccc1NS(=O)(=O)c1c(-c2ccc(C)cc2)csc1C(=O)OC | inactive | –
O=C(c1ccc(C(F)(F)F)cc1)n1ccc(-c2cccs2)n1 | inconclusive [activator, partial curve] | –
CCOC(=O)CSc1nc(N)c(C#N)c(CC(C)C)c1C#N | inconclusive [activator, full curve, poor fit] | –
O=S(=O)(Nc1ccc(N2CCOCC2)cc1)c1ccc(Cl)s1 | inconclusive [activator, partial curve, poor fit] | –
CCCCC(=O)Nc1ncc([N+](=O)[O-])s1 | active: 15.8 µM | –
Cc1nc(-c2ccccc2)sc1CCNC(=O)c1ccco1 | active: 17.8 µM | –
Cc1ccc(S(=O)(=O)N(C)C)cc1NC(=O)C(C)OC(=O)C1CCCCC1 (stereo unspecified) | inactive | –
Clc1ccc(-c2cccc3nccn23)c(Cl)c1 | inconclusive [activator, full curve] | –
CC(=O)Oc1ccc(Cl)cc1/C=C/c1ccc2ccccc2n1 | inconclusive [activator, single point] | –
Cc1cccn2c(=O)c3cc(C(=O)N4CCCCC4C)sc3nc12 (stereo unspecified) | inconclusive [activator, single point] | –
CC1CCCN(C(=O)c2ccc3c(c2)C(=O)N(CCC2=CCCCC2)C3=O)C1 (stereo unspecified) | inconclusive [activator, partial curve] | –
COC(=O)C1CCN(C(=O)c2ccc3nc(-c4cccc(OC)c4)oc3c2)CC1 | inconclusive [activator, partial curve] | –
Cn1cc(CCC(=O)NCCCc2ccccc2)c2ccccc21 | – | inconclusive: 30.9% [activator]
CC(O)(c1cccnc1)c1nc(-c2ccc3ccccc3c2)cs1 (stereo unspecified) | inconclusive [activator, single point] | –
CC(C)Oc1ccc(CNC(=O)c2ccc(NC(=O)c3nsc4ccccc34)cc2)cc1 | inconclusive [activator, partial curve, poor fit] | –
CC(C)(C)C(=O)Nc1ccc2nc(SCC(=O)N3CCCC3)sc2c1 | inactive | –
Brc1ccc2nc(N3CCCC3)sc2c1 | inconclusive [activator, partial curve] | –
Cc1ccc(S(=O)(=O)N2CCN(C(=O)COC(=O)Cc3ccc(Cl)cc3)CC2)c(C)c1 | inconclusive [activator, partial curve] | –
O=C(CSc1nc2ccccc2o1)Nc1nc2c(s1)CCCC2 | inconclusive [activator, partial curve] | –
CN(C(=O)Nc1ccc(F)cc1)[C@H]1C[C@H]2c3[nH]c4ccccc4c3CCN2C(=O)[C@H]1CO | inconclusive [activator, partial curve] | –
O=C(Nc1cc(Cl)ccc1N1CCOCC1)c1cccnc1Cl | inconclusive [activator, single point] | –
Cc1cc(Nc2ccc(Cl)cc2)n(-c2ccccc2)n1 | active: 10 µM | –

Compound | Potency | growth rescue (activation)
CC(=O)Nc1c(NC(C)C)c2ccccc2oc1=O | inactive | –
O=C(c1ccco1)c1cn(CC(=O)N2CCCc3ccccc32)c2ccccc12 | inconclusive [activator, single point] | –
COc1cccc(-c2noc(C3CCCN(C(=O)CC(C)(C)C)C3)n2)c1 (stereo unspecified) | inconclusive [activator, single point] | –
COc1ccc(OC)c2sc(N3CCc4ccccc4C3)nc12 | inconclusive [activator, partial curve] | –
COCC(C)n1c(C)cc(C(=O)COC(=O)c2cnc(Cl)c(Cl)c2)c1C (stereo unspecified) | inconclusive [activator, partial curve] | –
CCN1C(=O)[C@H]2[C@@H](c3ccc(-c4cccc(Cl)c4)cc3)N[C@@](Cc3ccccc3)(C(=O)OC)[C@H]2C1=O | inactive | –
Cc1ccc(C(=O)CCC(=O)OCC(=O)N2CCN(S(=O)(=O)c3ccc(C)cc3C)CC2)cc1 | inconclusive [activator, single point] | –
CC(=O)Oc1ccc(Oc2ccc(-c3noc(C)n3)cc2)cc1 | active: 11.2 µM | –
COc1ccc(CNC(=O)C2CC(c3ccccc3[N+](=O)[O-])=NO2)cc1 (stereo unspecified) | inconclusive [activator, partial curve] | –
O=C(c1cccc2c1-c1ccccc1/C2=N/O)N1CCCCC1 | inconclusive [activator, single point] | –
O=C(c1ccc(N2CCCCC2)c([N+](=O)[O-])c1)N(Cc1ccccc1)c1ccccn1 | inconclusive [activator, partial curve] | –
C=CCNc1nc2cc(-c3ccccc3C)sc2c(=O)n1C | active: 35.5 µM | –
CCOC(=O)Cn1c(=O)cc(-c2ccccc2)c2c(C)nn(C)c21 | inconclusive [activator, single point] | –
CC1(C(=O)Nc2cccc3c2CCCC3)CCN1C(=O)Cc1ccccc1Cl (stereo unspecified) | inconclusive [activator, single point] | –
COc1ccc(N2CCN(CCCNC(=O)c3cnn(-c4ccc(F)cc4)c3-n3cccc3)CC2)cc1 | inactive | –
COc1ccc2oc(C(=O)OC(C)C(=O)Nc3ccc(N4CCOCC4)cc3)c(C)c2c1 (stereo unspecified) | inactive | –
COCCNC(=O)c1c(NC(=O)Cc2coc3cc(C)ccc23)sc2c1CCCC2 | inconclusive [activator, partial curve] | –
N#Cc1ccccc1NC(=O)c1cc(=O)c2ccccc2o1 | inconclusive [activator, single point] | –
O=C(Nc1cc(Cl)cc(Cl)c1)c1cccc(OC(F)F)c1 | – | inconclusive: -90.8% [activator]
CN(C(=O)c1nn(C)c2c1COc1ccccc1-2)c1cccc(C(F)(F)F)c1 | inconclusive [activator, full curve, poor fit] | –
COc1ccc(/C=C2\CCCCC2=O)cc1 | inactive | –
CCCCNc1nc(Oc2ccc(=O)n(-c3ccccc3)n2)nc(N(C)C)n1 | inconclusive [activator, partial curve] | –
Cc1cccc(N(CC(=O)Nc2ccc(F)cc2)S(C)(=O)=O)c1 | inactive | –
Cc1cccc(C)c1NC(=O)C(Cl)C(=O)c1ccccc1 (stereo unspecified) | active: 3.98 µM | –

Compound | Potency | growth rescue (activation)
COc1cccc2c(=O)cc(C)n(CC(=O)Nc3ccccc3C)c12 | inactive | –
Cc1nc(Nc2cc(F)ccc2C)c2nnn(Cc3ccccc3)c2n1 | – | inconclusive: 43.6% [activator]
CCOc1ccccc1NC(=O)c1cccc(NC(=O)C2CCCC2)c1 | inconclusive [activator, single point] | –
CCOc1ncccc1C(=O)OCCN1C(=O)c2ccccc2C1=O | inconclusive [activator, single point] | –
COc1cc(C=CC(=O)OCC=Cc2ccc3c(c2)OCO3)cc(OC)c1OC | inactive | –
CCCCc1nc2ccccc2n2c(-c3ccc(C)cc3)c3c(=O)n(C)c(=O)n(C)c3c12 | inconclusive [activator, full curve] | –
CC(C)c1ccc(O)c(NC(=O)c2cncc(Br)c2)c1 | inconclusive [activator, partial curve] | –
Cn1cc(CN2CCCC(C(=O)Nc3ccc(-c4cccc(F)c4)cc3)C2)cn1 (stereo unspecified) | inactive | –
COC(=O)c1[nH]c2cccc(OC)c2c1NC(=O)C(C)N1CCC(C)CC1 (stereo unspecified) | inactive | –
CNC(=S)NNC(=O)CCn1nc(C)c(Br)c1C | inactive | –
O=S1(=O)CC(N2CCN(CCO)CC2)CN1Cc1cn(Cc2ccc(F)cc2)nn1 (stereo unspecified) | inconclusive [activator, partial curve, poor fit] | –
COc1ccc(NC(=O)c2sc3nc(C)cc(C)c3c2N)cc1 | inconclusive [activator, full curve, poor fit] | –
O=C(NCC(c1ccco1)S(=O)(=O)c1ccc(Cl)cc1)c1ccccc1F (stereo unspecified) | – | inactive: 19.8% [at 9.22 µM]
Fc1ccccc1NC(=S)NCc1ccccc1 | inactive | –
O=[N+]([O-])c1cc(-c2nc(-c3cccnc3)no2)ccc1NCc1ccccc1 | inactive | –
Cc1onc(-c2ccccc2)c1C(=O)N/N=C/C(Br)=C/c1ccccc1 | active: 17.8 µM | –
CCOc1ccc(Nc2nc3ccccc3n3c(CC)nnc23)cc1 | active: 25.1 µM | –
CCCCNC(=O)C1(C)CCCCN1C(=O)c1ccc2c(c1)C(C)(C)CCC2(C)C (stereo unspecified) | active: 20 µM | –
O[C@H]1CN(CC2CCCCC2)[C@@H](c2ccc(Cl)cc2)C[C@@H]1n1cc(-c2ccc(F)cc2)nn1 | inconclusive [activator, single point] | –
N#C/C(=C\c1cccnc1)C(=O)Nc1ccc(Cl)cc1 | inconclusive [activator, single point] | –
CCCc1nnc(NC(=O)Cc2coc3cc(C)cc(C)c23)s1 | inactive | –
Cc1ccc(C(=O)N2CCc3cc(CNC(=O)COc4ccccc4)ccc32)cc1 | inconclusive [activator, single point] | –
Cc1ccccc1-c1cccc([C@@H]2C[C@H]3[C@H](CON3C)CN2C(=O)C(C)(C)C)c1 | inactive | –
